Each structure is given as a SMILES string. The campaign covered roughly 310,000 compounds. About 14,000 (4.5%) showed an effect of 50% or more. The effect is printed as a negative number. The list shows a part of the results.
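Note: peak tail current of the secondary pulse compared with the same well before compound.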

Sequence of human ether-à-go-go-related gene (hERG) potassium channel (Q12809 whole entry, looked up): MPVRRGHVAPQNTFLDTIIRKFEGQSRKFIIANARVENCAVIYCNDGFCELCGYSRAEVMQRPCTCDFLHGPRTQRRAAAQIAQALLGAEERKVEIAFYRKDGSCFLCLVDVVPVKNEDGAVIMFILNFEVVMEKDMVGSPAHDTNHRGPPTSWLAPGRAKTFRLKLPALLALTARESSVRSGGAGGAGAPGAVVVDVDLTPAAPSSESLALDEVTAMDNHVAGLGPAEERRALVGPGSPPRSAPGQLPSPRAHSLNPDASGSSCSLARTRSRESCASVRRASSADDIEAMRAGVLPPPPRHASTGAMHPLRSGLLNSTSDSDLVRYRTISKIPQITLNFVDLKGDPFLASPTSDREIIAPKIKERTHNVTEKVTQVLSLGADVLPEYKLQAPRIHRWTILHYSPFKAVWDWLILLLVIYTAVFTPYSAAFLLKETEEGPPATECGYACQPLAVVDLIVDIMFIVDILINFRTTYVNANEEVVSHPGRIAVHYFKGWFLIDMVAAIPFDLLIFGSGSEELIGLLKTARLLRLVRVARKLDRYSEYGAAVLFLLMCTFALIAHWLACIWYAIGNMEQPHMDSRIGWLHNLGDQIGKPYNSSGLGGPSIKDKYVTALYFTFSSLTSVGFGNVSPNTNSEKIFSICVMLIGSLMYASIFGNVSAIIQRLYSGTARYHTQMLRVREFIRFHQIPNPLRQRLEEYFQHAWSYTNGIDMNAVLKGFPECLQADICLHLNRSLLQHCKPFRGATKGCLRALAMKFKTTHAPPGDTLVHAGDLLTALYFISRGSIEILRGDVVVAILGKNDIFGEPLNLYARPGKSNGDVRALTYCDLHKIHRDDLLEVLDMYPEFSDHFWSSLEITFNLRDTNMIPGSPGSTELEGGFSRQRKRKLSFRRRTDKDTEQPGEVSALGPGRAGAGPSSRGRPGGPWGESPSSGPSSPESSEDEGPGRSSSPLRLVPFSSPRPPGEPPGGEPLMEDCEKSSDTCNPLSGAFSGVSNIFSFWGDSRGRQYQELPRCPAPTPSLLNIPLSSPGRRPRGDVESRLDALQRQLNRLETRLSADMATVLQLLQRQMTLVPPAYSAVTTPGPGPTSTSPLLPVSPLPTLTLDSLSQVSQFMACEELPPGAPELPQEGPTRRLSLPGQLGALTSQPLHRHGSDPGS

This assay has as its target human ether-à-go-go-related gene (hERG) potassium channel (human, UniProt Q12809). Kind of assay: primary screen, population patch clamp on CHO cells stably expressing hERG.
Take `N/C(COc1ccc(Cl)cc1Cl)=N\NS(=O)(=O)c1ccccc1`: the “hERG current change (%, negative = inhibition) at 10uM” value was -12.5%.
Consider `Cc1ccc(S(=O)(=O)N2CCCOC2CNC(=O)C(=O)NCc2cccnc2)cc1` (stereo not shown), for which the “hERG current change (%, negative = inhibition) at 10uM” value amounted to 13.5%.
As to `Cn1cc(-c2nnnn2-c2ccc(Cl)cc2)c(=O)c2ccccc21`, the “hERG current change (%, negative = inhibition) at 10uM” value was -69.3%.
The value for `O=C1NC(=Nc2ccccc2)S/C1=C\C=C\c1ccco1` was 4.21%; that for `O=C(O)CC1S/C(=N\N=C2CCCCCC2)N(c2ccccc2)C1=O` (stereo not shown) was 9.08%; that for `COc1ccc(/C=N/Nc2nc3ccccc3c(=O)n2-c2ccccc2)cc1OC` was -4.81%.
The figure for `C(=C\c1ccco1)/C1=NN(c2ccccc2)C(c2ccco2)C1` (stereo not shown) is 10.7%; for `COc1cc(NC(=O)c2ccccc2-n2cnnn2)cc(OC)c1` it is 5.93%; for `CCOC(=O)c1cc(S(=O)(=O)N2CCCC2)cn1C` it is 11%.
The figure for `Nc1cccc2c1C(=O)N(Cc1cccc(Cl)c1)C2=O` is 0.677%; for `COC(=O)c1cccc(Oc2nc3c(c(=O)n(C)c(=O)n3C)n2Cc2ccc(C)cc2)c1` it is -9.94%; for `COc1ccc(CCC(=O)Nc2ccc(C(=O)c3ccncc3)cc2)cc1` it is 3.21%.
For `COc1ccc(-c2cc3nc(CCl)[nH]c(=O)c3s2)cc1`, the “hERG current change (%, negative = inhibition) at 10uM” value came to 18.1%.
`COc1ccc(N2C(=O)CC(c3cc(OC)c(OC)c(OC)c3)CC2=O)cc1`: the “hERG current change (%, negative = inhibition) at 10uM” value turned out to be 12.4%.
Regarding `COc1ccc(CN2CCN(Cc3ccc(C)cc3)C(CCO)C2)cc1OC` (stereo not shown), the “hERG current change (%, negative = inhibition) at 10uM” value was -54.3%.
The figure for `CCOC(=O)c1[nH]c(C)c(C(=O)OCC(=O)NCc2ccc(OC)cc2)c1C` is 8.13%; for `COC(=O)c1ccc(C)c(NC(=S)NCc2ccc(Cl)cc2)c1` it is 5.57%; for `O=C(CSc1ccc(-c2ccc(Cl)cc2)nn1)NC1CCCC1` it is 10.2%.
Consider `O=C(Nc1ncc([N+](=O)[O-])s1)c1ccccc1Br`, for which the “hERG current change (%, negative = inhibition) at 10uM” value is recorded as 8.12%.
For `O=c1oc2c(CN3CCOCC3)c(O)c(Cl)cc2c2c1CCCC2`, the “hERG current change (%, negative = inhibition) at 10uM” value is 6.08%.
As to `CC/C(=N\NC(=O)c1nnn(-c2nonc2N)c1-c1ccc2c(c1)OCO2)c1ccccc1`, the “hERG current change (%, negative = inhibition) at 10uM” value is recorded as 17.9%.
Turning to `COc1ccccc1[C@@H]1C(c2cccc(Cl)c2)=NN(c2ccccc2)[C@H]1C(=O)N1CCOC1=O`, the “hERG current change (%, negative = inhibition) at 10uM” value is reported as 15.2%.
The value for `CNc1ccc(C2(O)C(=O)c3ccccc3C2=O)cc1` was -66.1%; that for `CC1(C)CC(=O)C(C(O)c2ccccc2)C(C)(C)N1` (stereo not shown) was 13.5%; that for `COc1ccc(-c2[nH]ncc2CNC(C)CCn2cccn2)cc1F` (stereo not shown) was -2.23%.
The figure for `COc1cccc(CNC(=O)CN(C)S(=O)(=O)c2ccc3c(c2)n(C)c(=O)c(=O)n3C)c1` is 10.3%; for `Cc1nn2c(C(F)(F)F)cc(-c3ccc(Cl)cc3)nc2c1C(=O)N1CCOCC1` it is -13.6%; for `CN(CC(=O)Nc1cccc(F)c1)C(=O)CN1C(=O)C2CCCCC2C1=O` (stereo not shown) it is -0.73%.
The figure for `Cc1ccc(CNC(=O)Nc2ccc(F)cc2)n1C` is 9.32%.
With `CC(C)c1ccc2c(c1)C1Cc3ccccc3C1N2.O=C(O)C(F)(F)F` (stereo not shown), the “hERG current change (%, negative = inhibition) at 10uM” value worked out at 4.21%.
The value for `c1ccc(Cn2c(NCc3ccco3)nc3ccccc32)cc1` was -51%; that for `COCCn1nnnc1CN(Cc1cc2cc(OC)c(OC)cc2[nH]c1=O)C1CCCC1` was 1.74%; that for `COc1ccc(NC(=O)CN(C)S(=O)(=O)c2cccc3cccnc23)cc1` was -15.5%.
On to `NC(=O)CSc1nc2ccccc2c(=O)n1-c1ccccc1`, for which the “hERG current change (%, negative = inhibition) at 10uM” value amounted to 20.1%.
For `CCC1CCCCN1C(=O)c1ccc2nc(Cc3ccc(OC)cc3)oc2c1` (stereo not shown), the “hERG current change (%, negative = inhibition) at 10uM” value was -11.7%.
Turning to `CCN(CC(=O)Nc1ccc(S(N)(=O)=O)cc1)S(=O)(=O)c1cc(C)ccc1OC`, the “hERG current change (%, negative = inhibition) at 10uM” value worked out at 3.91%.
For the compound `Cc1ccccc1NC(=O)C1CC(Cl)=CCC1C(=O)O` (stereo not shown), the “hERG current change (%, negative = inhibition) at 10uM” value is -11.3%.
The figure for `CN(CC(=O)Nc1ccccc1Cl)C(=O)CSc1nc2ccccc2s1` is -1.96%; for `FC(F)(F)c1ccc(C2NCCc3sccc32)cc1` (stereo not shown) it is -10.1%.
With `Cc1ccnc(NC(c2ccccc2O)c2oc(CO)cc(=O)c2O)c1` (stereo not shown), the “hERG current change (%, negative = inhibition) at 10uM” value is on record as 3.92%.
The value for `COc1ccc(-c2nc3cc(C)ccn3c2NCC2CCCO2)cc1OC.Cl` (stereo not shown) was -71.2%; that for `CC(=O)N1CCCc2cc(S(=O)(=O)N3CCCC3)ccc21` was 15.3%.
Turning to `C=CCN=C(NC#N)SCC(=O)c1cccc(OC)c1`, the “hERG current change (%, negative = inhibition) at 10uM” value is -1.17%.
The figure for `Cc1c(NC(=O)c2cnc(Cl)c(Cl)c2)c(=O)n(-c2ccccc2)n1C` is 2.95%; for `Cc1ccc(S(=O)(=O)N2CCCCC2CCNC(=O)C(=O)Nc2ccccc2F)cc1` (stereo not shown) it is 2.2%; for `COc1ccc(-c2nc(CN3CCC(C(=O)N4CCOCC4)CC3)c(C)o2)cc1OC` it is -6.54%.
The figure for `CCC(C)c1ccccc1NC(=O)COC(=O)CCc1cc(OC)c(OC)c(OC)c1` (stereo not shown) is 2.71%.
The figure for `COc1cc2cc(CN(CCc3ccccc3C)C(=S)NCCCN3CCOCC3)c(=O)[nH]c2cc1OC` is -38.4%.
As for `COc1cc(F)ccc1CN1CCC(n2nccc2NC(=O)C2CCOC2)CC1` (stereo not shown), the “hERG current change (%, negative = inhibition) at 10uM” value is listed as -14.5%.
For `COc1cccc(OC)c1/C=C/C(=O)NC1CCCCC1`, the “hERG current change (%, negative = inhibition) at 10uM” value is 12.5%.
With `O=C(CNc1ccccc1OC(F)F)N1CCc2ccccc21`, the “hERG current change (%, negative = inhibition) at 10uM” value is 21.9%.
In the case of `Cc1cc(=O)oc2cc(OCC(=O)Nc3nnc(CC(C)C)s3)ccc12`, the “hERG current change (%, negative = inhibition) at 10uM” value is recorded as -2.86%.
The figure for `COc1ccc(CCn2nnnc2CN2CCN(C(=O)c3ccco3)CC2)cc1OC` is -35%.
The figure for `O=C(NN1C(=O)/C(=C/c2cccnc2)SC1=S)C(c1ccccc1)c1ccccc1` is -5.67%.
The figure for `CC(=O)c1cccc(NC(=O)c2cc(-c3ccc(C)cc3)on2)c1` is 17.3%.
In the case of `CC(NC(=O)c1ccc(CS(C)(=O)=O)cc1)c1ccc(-c2ccccc2)cc1` (stereo not shown), the “hERG current change (%, negative = inhibition) at 10uM” value turned out to be 15.4%.
The figure for `COc1ccc2nc(-c3ccccn3)[nH]c2c1` is 6.8%.
Turning to `COCC(C)NC(=O)c1ccc(Cl)c(Cl)c1` (stereo not shown), the “hERG current change (%, negative = inhibition) at 10uM” value came to 13.5%.
The value for `Cc1ccc(OCC(=O)Nc2c3c(nn2C(C)(C)C)CS(=O)(=O)C3)cc1` was -41.4%; that for `CNC(=O)CSc1nnc(-c2ccccc2F)n1CCc1ccccc1` was -26.7%.
Take `Cc1cccc2cc(C3CC(c4ccco4)=NN3C(=O)CCC(=O)O)c(Cl)nc12` (stereo not shown): the “hERG current change (%, negative = inhibition) at 10uM” value came out at 9.26%.
In the case of `COc1ccc(N2CCN(C(CNC(=O)C3CCCCC3)c3cccnc3)CC2)cc1` (stereo not shown), the “hERG current change (%, negative = inhibition) at 10uM” value is 0.00358%.
`COc1ccc(NC(=O)c2cc(S(=O)(=O)N(Cc3ccccc3)c3ccccc3)ccc2Cl)cn1`: the “hERG current change (%, negative = inhibition) at 10uM” value is listed as -4.28%.
Turning to `CC(=O)c1cn(CC(=O)Nc2ccc(C)cc2)c2ccccc12`, the “hERG current change (%, negative = inhibition) at 10uM” value came to 8.06%.
The value for `O=C(/C=C/c1ccccc1Cl)N(Cc1cccs1)C1CCS(=O)(=O)C1` (stereo not shown) was -31.5%; that for `Cn1c(C(O)C(O)c2ccccc2)nc2ccccc21` (stereo not shown) was 7.08%; that for `Cc1cc(C(=O)OCC(=O)NCCc2ccc(S(N)(=O)=O)cc2)c2ccccc2n1` was 14.6%.
The value for `COc1ccc(OCc2cc(C(=O)NCc3nc(C)cs3)no2)c(Cl)c1` was -17.2%; that for `O=C(CNC(=O)c1ccccc1)NC1(C(=O)NC2CCCC2)CCCCC1` was 5.11%; that for `O=C(CCn1c(=S)[nH]c2cc3c(cc2c1=O)OCO3)NCc1ccccc1Cl` was 23%.
With `Cc1nc(C(=O)Nc2ccc(F)cc2)nn1-c1ccc([N+](=O)[O-])cc1`, the “hERG current change (%, negative = inhibition) at 10uM” value is given as -67.4%.
As to `CCCNc1nc2c(c(=O)n(C)c(=O)n2C)n1CCC(C)C`, the “hERG current change (%, negative = inhibition) at 10uM” value is listed as 4.05%.
As to `CCn1cc(C(=O)O)c(=O)c2cnc(N3CCNCC3)nc21`, the “hERG current change (%, negative = inhibition) at 10uM” value is recorded as -65.4%.
Consider `COc1ccc(NC2=NC(=S)N(c3cccc(C)c3)C23CCCCC3)cc1`, for which the “hERG current change (%, negative = inhibition) at 10uM” value was -3.96%.
The figure for `COc1ccc(-c2nn(CC(=O)NCCc3ccccc3)c(=S)n2C)cc1` is -18.2%; for `COc1ccc(C(=O)Nc2cnn(Cc3ccc(Cl)cc3)c2)cc1OC` it is -29%; for `CCCCCCCOc1ccc(C(=O)Nc2cccnc2)cc1` it is 16.5%.
With `CN(CC(=O)Nc1ccc(F)c(Cl)c1)S(=O)(=O)c1cccc2nsnc12`, the “hERG current change (%, negative = inhibition) at 10uM” value is -21.1%.
The figure for `COc1ccc(-c2csc(C)n2)cc1OC` is 4.47%; for `CC(C)CCNC(=O)c1ccc(Cl)c(N)c1` it is 18.9%.
The value for `COc1cc2nc(C3CCC3)n(NC(=O)c3ccco3)c(=O)c2cc1OC` was -15.5%; that for `Cc1cccc(Nc2nc(N)nc(CN3CCN(c4ccccc4F)CC3)n2)c1` was -68.2%; that for `O=C(CSc1nnc(-c2cccs2)n1CC1CCCO1)c1cc2ccccc2o1` (stereo not shown) was -38.9%.
`COC(=O)c1ccc(CSc2nnc(-c3ccncc3)o2)cc1`: the “hERG current change (%, negative = inhibition) at 10uM” value came to 2.87%.
The value for `COC(=O)c1ccc(Cn2cc(/C=C\[N+](=O)[O-])c3ccccc32)o1` was -16.4%.
The value for `CC(=O)c1cc(Cc2csc(C(C)=O)c2)cs1` was 2.75%; that for `CCSc1ccccc1-c1nc(-c2ccncc2)no1` was -4.39%.
The figure for `Clc1cc(Cl)cc(Nc2ncn[nH]2)c1` is -8.8%.

The values above are taken from paper PMC4336329 (PLoS ONE, 2015).
